Data: PMC12820563
The list shows a part of the results. The list includes weakly bound sequences.

These sequences were tested against T1, MBP-FoxP3dN (UniProt Q99JB6) (assay: PD-seq (MBP pull-down with sequencing)). Conditions: 20 mM Tris-HCl pH 7.5, 100 mM NaCl, 1.5 mM MgCl2, 0.4 uM protein, 0.1 uM dsDNA library, 30 min, room temperature, amylose pull-down; high values mean tight binding; double strand, one strand shown.
T1 sequence: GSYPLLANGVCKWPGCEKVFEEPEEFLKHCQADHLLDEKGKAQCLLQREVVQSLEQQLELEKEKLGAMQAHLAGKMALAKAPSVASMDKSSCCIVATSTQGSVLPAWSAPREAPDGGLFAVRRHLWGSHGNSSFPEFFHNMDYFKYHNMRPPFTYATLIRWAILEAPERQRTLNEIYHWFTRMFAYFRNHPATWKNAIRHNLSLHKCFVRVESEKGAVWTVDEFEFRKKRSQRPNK

| Sequence | binding signal (RPM ratio (pull-down/input)) |
| --- | --- |
| GATGATTGTTCTCCCAGCTGATGAATTATGTGTTTCGAGTAAACAAATTTTCCTAATCTTTCTGTTCAAGCGCCATCTAC | 4.42 |
| GATGATTGTTCTCCCAGCTGATGAATTGGTCGAGTCGAGTAAACAAATTTTCCTAATCTTTCTGTTCAAGCGCCATCTAC | 0.27 |
| GATGATTGTTCTCCCAGCTGATGAATTTTCGTCGTCGAGTAAACAAATTTTCCTAATCTTTCTGTTCAAGCGCCATCTAC | 0.408 |
| GATGATTGTTCTCCCAGCTGATGAATTGTGAGCCTCGAGTAAACAAATTTTCCTAATCTTTCTGTTCAAGCGCCATCTAC | 1 |
| GATGATTGTTCTCCCAGCTGATGAATTGCATTATTCGAGTAAACAAATTTTCCTAATCTTTCTGTTCAAGCGCCATCTAC | 3.3 |
| GATGATTGTTCTCCCAGCTGATGAATTTGCACCTTCGAGTAAACAAATTTTCCTAATCTTTCTGTTCAAGCGCCATCTAC | 0.765 |
| GATGATTGTTCTCCCAGCTGATGAATTTGAGTCGTCGAGTAAACAAATTTTCCTAATCTTTCTGTTCAAGCGCCATCTAC | 0.775 |
| GATGATTGTTCTCCCAGCTGATGAATTGTGTGGTTCGAGTAAACAAATTTTCCTAATCTTTCTGTTCAAGCGCCATCTAC | 3.74 |
| GATGATTGTTCTCCCAGCTGATGAATTGGCCCTCTCGAGTAAACAAATTTTCCTAATCTTTCTGTTCAAGCGCCATCTAC | 0.358 |
| GATGATTGTTCTCCCAGCTGATGAATTGTTTGCATCGAGTAAACAAATTTTCCTAATCTTTCTGTTCAAGCGCCATCTAC | 6.03 |
| GATGATTGTTCTCCCAGCTGATGAATTGGAGAAATCGAGTAAACAAATTTTCCTAATCTTTCTGTTCAAGCGCCATCTAC | 0.287 |
| GATGATTGTTCTCCCAGCTGATGAATTCAATGAGTCGAGTAAACAAATTTTCCTAATCTTTCTGTTCAAGCGCCATCTAC | 0.453 |
| GATGATTGTTCTCCCAGCTGATGAATTAAACCCCTCGAGTAAACAAATTTTCCTAATCTTTCTGTTCAAGCGCCATCTAC | 0.297 |
| GATGATTGTTCTCCCAGCTGATGAATTTAGCTGTTCGAGTAAACAAATTTTCCTAATCTTTCTGTTCAAGCGCCATCTAC | 1.7 |
| GATGATTGTTCTCCCAGCTGATGAATTGTCTGTGTCGAGTAAACAAATTTTCCTAATCTTTCTGTTCAAGCGCCATCTAC | 0.563 |
| GATGATTGTTCTCCCAGCTGATGAATTCTAGATGTCGAGTAAACAAATTTTCCTAATCTTTCTGTTCAAGCGCCATCTAC | 0.394 |
| GATGATTGTTCTCCCAGCTGATGAATTCAAACCATCGAGTAAACAAATTTTCCTAATCTTTCTGTTCAAGCGCCATCTAC | 0.347 |
| GATGATTGTTCTCCCAGCTGATGAATTTAAACGTTCGAGTAAACAAATTTTCCTAATCTTTCTGTTCAAGCGCCATCTAC | 0.39 |
| GATGATTGTTCTCCCAGCTGATGAATTGATGCACTCGAGTAAACAAATTTTCCTAATCTTTCTGTTCAAGCGCCATCTAC | 5.09 |
| GATGATTGTTCTCCCAGCTGATGAATTTCGCTTTTCGAGTAAACAAATTTTCCTAATCTTTCTGTTCAAGCGCCATCTAC | 2.49 |
| GATGATTGTTCTCCCAGCTGATGAATTTACGTCGTCGAGTAAACAAATTTTCCTAATCTTTCTGTTCAAGCGCCATCTAC | 0.839 |

| Sequence | binding signal (RPM ratio (pull-down/input)) |
| --- | --- |
| GATGATTGTTCTCCCAGCTGATGAATTTAGATGCTCGAGTAAACAAATTTTCCTAATCTTTCTGTTCAAGCGCCATCTAC | 1.4 |
| GATGATTGTTCTCCCAGCTGATGAATTAGAGTAATCGAGTAAACAAATTTTCCTAATCTTTCTGTTCAAGCGCCATCTAC | 0.504 |
| GATGATTGTTCTCCCAGCTGATGAATTCATCAATTCGAGTAAACAAATTTTCCTAATCTTTCTGTTCAAGCGCCATCTAC | 0.425 |
| GATGATTGTTCTCCCAGCTGATGAATTCCTCCTTTCGAGTAAACAAATTTTCCTAATCTTTCTGTTCAAGCGCCATCTAC | 0.257 |
| GATGATTGTTCTCCCAGCTGATGAATTAATGGCCTCGAGTAAACAAATTTTCCTAATCTTTCTGTTCAAGCGCCATCTAC | 0.687 |
| GATGATTGTTCTCCCAGCTGATGAATTAGACTGTTCGAGTAAACAAATTTTCCTAATCTTTCTGTTCAAGCGCCATCTAC | 0.488 |
| GATGATTGTTCTCCCAGCTGATGAATTTCTATTGTCGAGTAAACAAATTTTCCTAATCTTTCTGTTCAAGCGCCATCTAC | 0.631 |
| GATGATTGTTCTCCCAGCTGATGAATTGCCGCTGTCGAGTAAACAAATTTTCCTAATCTTTCTGTTCAAGCGCCATCTAC | 0.704 |
| GATGATTGTTCTCCCAGCTGATGAATTCGTTAATTCGAGTAAACAAATTTTCCTAATCTTTCTGTTCAAGCGCCATCTAC | 0.481 |
| GATGATTGTTCTCCCAGCTGATGAATTCAATCAATCGAGTAAACAAATTTTCCTAATCTTTCTGTTCAAGCGCCATCTAC | 0.424 |
| GATGATTGTTCTCCCAGCTGATGAATTCCCGAAATCGAGTAAACAAATTTTCCTAATCTTTCTGTTCAAGCGCCATCTAC | 0.229 |
| GATGATTGTTCTCCCAGCTGATGAATTAGGGGCATCGAGTAAACAAATTTTCCTAATCTTTCTGTTCAAGCGCCATCTAC | 0.844 |
| GATGATTGTTCTCCCAGCTGATGAATTTTAGTTGTCGAGTAAACAAATTTTCCTAATCTTTCTGTTCAAGCGCCATCTAC | 1.71 |
| GATGATTGTTCTCCCAGCTGATGAATTCGACTTCTCGAGTAAACAAATTTTCCTAATCTTTCTGTTCAAGCGCCATCTAC | 0.526 |
| GATGATTGTTCTCCCAGCTGATGAATTCGGTCTCTCGAGTAAACAAATTTTCCTAATCTTTCTGTTCAAGCGCCATCTAC | 0.541 |
| GATGATTGTTCTCCCAGCTGATGAATTGTCTTGCTCGAGTAAACAAATTTTCCTAATCTTTCTGTTCAAGCGCCATCTAC | 0.461 |
| GATGATTGTTCTCCCAGCTGATGAATTAATGCAATCGAGTAAACAAATTTTCCTAATCTTTCTGTTCAAGCGCCATCTAC | 4.42 |
| GATGATTGTTCTCCCAGCTGATGAATTGTCCCAATCGAGTAAACAAATTTTCCTAATCTTTCTGTTCAAGCGCCATCTAC | 0.382 |
| GATGATTGTTCTCCCAGCTGATGAATTTACAGACTCGAGTAAACAAATTTTCCTAATCTTTCTGTTCAAGCGCCATCTAC | 0.388 |
| GATGATTGTTCTCCCAGCTGATGAATTCTACTTATCGAGTAAACAAATTTTCCTAATCTTTCTGTTCAAGCGCCATCTAC | 0.967 |
| GATGATTGTTCTCCCAGCTGATGAATTGGCTATATCGAGTAAACAAATTTTCCTAATCTTTCTGTTCAAGCGCCATCTAC | 0.571 |

| Sequence | binding signal (RPM ratio (pull-down/input)) |
| --- | --- |
| GATGATTGTTCTCCCAGCTGATGAATTGATGTGGTCGAGTAAACAAATTTTCCTAATCTTTCTGTTCAAGCGCCATCTAC | 1.03 |
| GATGATTGTTCTCCCAGCTGATGAATTTCAGAATTCGAGTAAACAAATTTTCCTAATCTTTCTGTTCAAGCGCCATCTAC | 0.505 |
| GATGATTGTTCTCCCAGCTGATGAATTAGTCATATCGAGTAAACAAATTTTCCTAATCTTTCTGTTCAAGCGCCATCTAC | 0.931 |
| GATGATTGTTCTCCCAGCTGATGAATTTTGGTCCTCGAGTAAACAAATTTTCCTAATCTTTCTGTTCAAGCGCCATCTAC | 0.394 |
| GATGATTGTTCTCCCAGCTGATGAATTGGCGCGGTCGAGTAAACAAATTTTCCTAATCTTTCTGTTCAAGCGCCATCTAC | 0.4 |
| GATGATTGTTCTCCCAGCTGATGAATTCGGGTCGTCGAGTAAACAAATTTTCCTAATCTTTCTGTTCAAGCGCCATCTAC | 0.655 |
| GATGATTGTTCTCCCAGCTGATGAATTTTCAGGCTCGAGTAAACAAATTTTCCTAATCTTTCTGTTCAAGCGCCATCTAC | 0.19 |
| GATGATTGTTCTCCCAGCTGATGAATTACATTGATCGAGTAAACAAATTTTCCTAATCTTTCTGTTCAAGCGCCATCTAC | 0.682 |
| GATGATTGTTCTCCCAGCTGATGAATTAGCAGTCTCGAGTAAACAAATTTTCCTAATCTTTCTGTTCAAGCGCCATCTAC | 0.574 |
| GATGATTGTTCTCCCAGCTGATGAATTGCCCTAATCGAGTAAACAAATTTTCCTAATCTTTCTGTTCAAGCGCCATCTAC | 0.376 |
| GATGATTGTTCTCCCAGCTGATGAATTTAACTTATCGAGTAAACAAATTTTCCTAATCTTTCTGTTCAAGCGCCATCTAC | 0.625 |
| GATGATTGTTCTCCCAGCTGATGAATTGCCTCAGTCGAGTAAACAAATTTTCCTAATCTTTCTGTTCAAGCGCCATCTAC | 0.562 |
| GATGATTGTTCTCCCAGCTGATGAATTACGTCGATCGAGTAAACAAATTTTCCTAATCTTTCTGTTCAAGCGCCATCTAC | 0.397 |
| GATGATTGTTCTCCCAGCTGATGAATTGCAGGGCTCGAGTAAACAAATTTTCCTAATCTTTCTGTTCAAGCGCCATCTAC | 0.493 |
| GATGATTGTTCTCCCAGCTGATGAATTCAAGATGTCGAGTAAACAAATTTTCCTAATCTTTCTGTTCAAGCGCCATCTAC | 0.291 |
| GATGATTGTTCTCCCAGCTGATGAATTCCCTCCCTCGAGTAAACAAATTTTCCTAATCTTTCTGTTCAAGCGCCATCTAC | 0.24 |
| GATGATTGTTCTCCCAGCTGATGAATTGCAAAGATCGAGTAAACAAATTTTCCTAATCTTTCTGTTCAAGCGCCATCTAC | 0.498 |
| GATGATTGTTCTCCCAGCTGATGAATTTTGCCAATCGAGTAAACAAATTTTCCTAATCTTTCTGTTCAAGCGCCATCTAC | 0.864 |
| GATGATTGTTCTCCCAGCTGATGAATTGTCACTTTCGAGTAAACAAATTTTCCTAATCTTTCTGTTCAAGCGCCATCTAC | 0.742 |
| GATGATTGTTCTCCCAGCTGATGAATTTTTGAACTCGAGTAAACAAATTTTCCTAATCTTTCTGTTCAAGCGCCATCTAC | 0.235 |
| GATGATTGTTCTCCCAGCTGATGAATTCCCTATCTCGAGTAAACAAATTTTCCTAATCTTTCTGTTCAAGCGCCATCTAC | 0.3 |
